# Experimental data published in patent US20230192795A1 (Hoffmann-La Roche, published 2023).
# B1: PD1-IL7-VAR7 (D21A) (other)
# light: DIVMTQSPDSLAVSLGERATINCKASESVDTSDNSFIHWYQQKPGQSPKLLIYRSSTLESGVPDRFSGSGSGTDFTLTISSLQAEDVAVYYCQQNYDVPWTFGQGTKVEIKRTVAAPSVFIFPPSDEQLKSGTASVVCLLNNFYPREAKVQWKVDNALQSGNSQESVTEQDSKDSTYSLSSTLTLSKADYEKHKVYACEVTHQGLSSPVTKSFNRGEC
# heavy 1: EVQLLESGGGLVQPGGSLRLSCAASGFSFSSYTMSWVRQAPGKGLEWVATISGGGRDIYYPDSVKGRFTISRDNSKNTLYLQMNSLRAEDTAVYYCVLLTGRVYFALDSWGQGTLVTVSSASTKGPSVFPLAPSSKSTSGGTAALGCLVKDYFPEPVTVSWNSGALTSGVHTFPAVLQSSGLYSLSSVVTVPSSSLGTQTYICNVNHKPSNTKVDKKVEPKSCDKTHTCPPCPAPEAAGGPSVFLFPPKPKDTLMISRTPEVTCVVVDVSHEDPEVKFNWYVDGVEVHNAKTKPREEQYNSTYRVVSVLTVLHQDWLNGKEYKCKVSNKALGAPIEKTISKAKGQPREPQVCTLPPSRDELTKNQVSLSCAVKGFYPSDIAVEWESNGQPENNYKTTPPVLDSDGSFFLVSKLTVDKSRWQQGNVFSCSVMHEALHNHYTQKSLSLSPGK
# heavy 2: EVQLLESGGGLVQPGGSLRLSCAASGFSFSSYTMSWVRQAPGKGLEWVATISGGGRDIYYPDSVKGRFTISRDNSKNTLYLQMNSLRAEDTAVYYCVLLTGRVYFALDSWGQGTLVTVSSASTKGPSVFPLAPSSKSTSGGTAALGCLVKDYFPEPVTVSWNSGALTSGVHTFPAVLQSSGLYSLSSVVTVPSSSLGTQTYICNVNHKPSNTKVDKKV[human IgG1 Fc with changes left out]GGGGSGGGGSGGGGSDCDIEGKDGKQYESVLMVSIAQLLDSMKEIGSNCLNNEFNFFKRHICDANKEGMFLFRAARKLRQFLKMNSTGDFDLHLLKVSEGTTILLNCTGQVKGRKPAALGEAQPTKSLEENKSLKEQKKLNDLCFLKRLLQEIKTCWNKILMGTKEH
# notes: Format as m1; IL-7 with D21A
# B2: PD1-IL7-VAR8 (D21K) (other)
# light: B1 light
# heavy 1: B1 heavy 1
# heavy 2: EVQLLESGGGLVQPGGSLRLSCAASGFSFSSYTMSWVRQAPGKGLEWVATISGGGRDIYYPDSVKGRFTISRDNSKNTLYLQMNSLRAEDTAVYYCVLLTGRVYFALDSWGQGTLVTVSSASTKGPSVFPLAPSSKSTSGGTAALGCLVKDYFPEPVTVSWNSGALTSGVHTFPAVLQSSGLYSLSSVVTVPSSSLGTQTYICNVNHKPSNTKVDKKV[human IgG1 Fc with changes left out]GGGGSGGGGSGGGGSDCDIEGKDGKQYESVLMVSIKQLLDSMKEIGSNCLNNEFNFFKRHICDANKEGMFLFRAARKLRQFLKMNSTGDFDLHLLKVSEGTTILLNCTGQVKGRKPAALGEAQPTKSLEENKSLKEQKKLNDLCFLKRLLQEIKTCWNKILMGTKEH
# notes: Format as m1; IL-7 with D21K
# B3: PD1-IL7-VAR9 (Q22A) (other)
# light: B1 light
# heavy 1: B1 heavy 1
# heavy 2: EVQLLESGGGLVQPGGSLRLSCAASGFSFSSYTMSWVRQAPGKGLEWVATISGGGRDIYYPDSVKGRFTISRDNSKNTLYLQMNSLRAEDTAVYYCVLLTGRVYFALDSWGQGTLVTVSSASTKGPSVFPLAPSSKSTSGGTAALGCLVKDYFPEPVTVSWNSGALTSGVHTFPAVLQSSGLYSLSSVVTVPSSSLGTQTYICNVNHKPSNTKVDKKV[human IgG1 Fc with changes left out]GGGGSGGGGSGGGGSDCDIEGKDGKQYESVLMVSIDALLDSMKEIGSNCLNNEFNFFKRHICDANKEGMFLFRAARKLRQFLKMNSTGDFDLHLLKVSEGTTILLNCTGQVKGRKPAALGEAQPTKSLEENKSLKEQKKLNDLCFLKRLLQEIKTCWNKILMGTKEH
# notes: Format as m1; IL-7 with Q22A
# B4: PD1-IL7-VAR10 (Q22K) (other)
# light: B1 light
# heavy 1: B1 heavy 1
# heavy 2: EVQLLESGGGLVQPGGSLRLSCAASGFSFSSYTMSWVRQAPGKGLEWVATISGGGRDIYYPDSVKGRFTISRDNSKNTLYLQMNSLRAEDTAVYYCVLLTGRVYFALDSWGQGTLVTVSSASTKGPSVFPLAPSSKSTSGGTAALGCLVKDYFPEPVTVSWNSGALTSGVHTFPAVLQSSGLYSLSSVVTVPSSSLGTQTYICNVNHKPSNTKVDKKV[human IgG1 Fc with changes left out]GGGGSGGGGSGGGGSDCDIEGKDGKQYESVLMVSIDKLLDSMKEIGSNCLNNEFNFFKRHICDANKEGMFLFRAARKLRQFLKMNSTGDFDLHLLKVSEGTTILLNCTGQVKGRKPAALGEAQPTKSLEENKSLKEQKKLNDLCFLKRLLQEIKTCWNKILMGTKEH
# notes: Format as m1; IL-7 with Q22K
# B5: PD1-IL7-VAR11 (D25A) (other)
# light: B1 light
# heavy 1: B1 heavy 1
# heavy 2: EVQLLESGGGLVQPGGSLRLSCAASGFSFSSYTMSWVRQAPGKGLEWVATISGGGRDIYYPDSVKGRFTISRDNSKNTLYLQMNSLRAEDTAVYYCVLLTGRVYFALDSWGQGTLVTVSSASTKGPSVFPLAPSSKSTSGGTAALGCLVKDYFPEPVTVSWNSGALTSGVHTFPAVLQSSGLYSLSSVVTVPSSSLGTQTYICNVNHKPSNTKVDKKV[human IgG1 Fc with changes left out]GGGGSGGGGSGGGGSDCDIEGKDGKQYESVLMVSIDQLLASMKEIGSNCLNNEFNFFKRHICDANKEGMFLFRAARKLRQFLKMNSTGDFDLHLLKVSEGTTILLNCTGQVKGRKPAALGEAQPTKSLEENKSLKEQKKLNDLCFLKRLLQEIKTCWNKILMGTKEH
# notes: Format as m1; IL-7 with D25A
# B6: PD1-IL7-VAR12 (D25K) (other)
# light: B1 light
# heavy 1: B1 heavy 1
# heavy 2: EVQLLESGGGLVQPGGSLRLSCAASGFSFSSYTMSWVRQAPGKGLEWVATISGGGRDIYYPDSVKGRFTISRDNSKNTLYLQMNSLRAEDTAVYYCVLLTGRVYFALDSWGQGTLVTVSSASTKGPSVFPLAPSSKSTSGGTAALGCLVKDYFPEPVTVSWNSGALTSGVHTFPAVLQSSGLYSLSSVVTVPSSSLGTQTYICNVNHKPSNTKVDKKV[human IgG1 Fc with changes left out]GGGGSGGGGSGGGGSDCDIEGKDGKQYESVLMVSIDQLLKSMKEIGSNCLNNEFNFFKRHICDANKEGMFLFRAARKLRQFLKMNSTGDFDLHLLKVSEGTTILLNCTGQVKGRKPAALGEAQPTKSLEENKSLKEQKKLNDLCFLKRLLQEIKTCWNKILMGTKEH
# notes: Format as m1; IL-7 with D25K
# Target: T1, Human IL7Ra-IL2Rγ-Fc heterodimer (human, biotin on the avi tag)
# T1 construct: Extracellular domains of IL-7Ralpha and IL-2Rgamma fused to Fc knob and Fc hole; also called hu IL7Ra-IL2Rγ-Fc avi biotin; human IL7Ra-IL2Rg-Fc biotin
# Assay: SPR, captured from supernatant, 800 nM receptor-Fc single injection
# Procedure: Surface Plasmon Resonacne (SPR) experiments were performed on a Biacore T200 with HBS-EP+ as running buffer (0.01 M HEPES pH 7.4, 0.15 M NaCl, 0.005% Surfactant P20 (BR-1006-69, GE Healthcare)). Fc specific antibodies (Roche internal) were directly immobilized by amine coupling on a CM5 chip (GE Healthcare). The PDI-IL7 constructs were captured from supernatants for 120 s at 100 nM. […] Only the extracellular domains were fused to Fc domains, produced in HEK Expi Cells and purified by two-step column chromatography including affinity purification via Protein A followed by size-exclusion chromatography. A single injection of 800 nM hu IL 7Ra-IL2Rγ-Fc heterodimer was passed over the ligand at 30 µ1/min for 240 sec to record the association phase. The dissociation phase was monitored for 360 s and triggered by switching from the sample solution to HBS-EP+. The chip surface was regenerated after every cycle using one injection of 10 mM glycine pH 2 for 60 sec. Bulk refractive index differences were corrected for by subtracting the response obtained on the reference flow cell 1. The response units after the capture step and at the end of the association phase were recorded and a ratio of binding to capture was calculated. The single binding curves were fitted in the dissociation phase to obtain a koff for ease of comparison (Biacore Evaluation software, GE Healthcare).
# The ratio of binding to capture was calculated and the dissociation phase was fitted to a single curve to support the characterization of the off-rate.
row,Binder,koff [s⁻¹]
1,B1,0.000623
2,B2,0.000634
3,B3,0.000598
4,B4,0.000586
5,B5,0.000687
6,B6,0.000715
